Data published in the supplement of paper PMC10037445.
Several values for one entry are separate records, joined by “and”; a condition that tells them apart may be missing. Equal entries are not always repeated. ± gives the standard deviation of the averaged measurements. Over roughly 2,900 compounds, “IRF Lucia reporter activity, fold change vs agonist alone” has its median near 0.9; the highest 2% begin near 2.8. This is one part of the list.

How the values were obtained:
RAW-Dual [1] = experiment: IRF Lucia reporter activity, fold change vs agonist alone; cytotoxicity flag (confluency mask): not cytotoxic; higher = enhanced IRF activity
Procedure, shortened: (§1)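 Supernatant from RAW-Dual macrophages was read after 20 hours for IRF by QuantiLuc luminescence and for NF-κB by QuantiBlue absorbance at 620 nm. The cells (50,000 cells/well in DMEM, 384-well plates, 37 °C, 5% CO2) had received 50 nL of library stock by pin tool and, 1 h later, a PRR agonist. Reporter activity is expressed relative to agonist-alone wells as fold change, and wells were flagged cytotoxic if IncuCyte confluency was under 70% of agonist controls in both mask sets.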

RAW-Dual [2] = experiment: IRF Lucia reporter activity, fold change vs agonist alone; higher = enhanced IRF activity; details: library stock concentration (final ~1000-fold dilution): 10 mM, agonist: MPLA (TLR4) […]
Procedure, shortened: as §1

RAW-Dual [3] = experiment: IRF Lucia reporter activity, fold change vs agonist alone; cytotoxicity flag (confluency mask): cytotoxic (confluency <70% of control); higher = enhanced IRF activity
Procedure, shortened: as §1

[4] = agonist: 3'3'-cGAMP (STING) 10 ug/mL
[5] = cytotoxicity flag (confluency mask): not cytotoxic
[6] = cytotoxicity flag (confluency mask): cytotoxic (confluency <70% of control)

CC(Nc1nc(NC(C)C(F)(F)F)nc(-c2cccc(Cl)n2)n1)C(F)(F)F (stereo not given) (library stock concentration (final ~1000-fold dilution): 10 mM)
IRF Lucia reporter activity (RAW-Dual [1]; [4]): 1.35
IRF Lucia reporter activity (RAW-Dual [1]; agonist: LPS (TLR4) 0.1 ug/mL): 1.3

COc1ccc2cc1Oc1ccc(cc1)CC1c3cc(c(OC)cc3CCN1C)Oc1c(OC)c(OC)cc3c1C(C2)N(C)CC3 (stereo not given)
IRF Lucia reporter activity (RAW-Dual [2]; [5]): 1.07

COc1ccc2cc1Oc1ccc(cc1)CC1c3cc(c(OC)cc3CCN1C)Oc1c(OC)c(OC)cc3c1C(C2)N(C)CC3 (stereo not given) (library stock concentration (final ~1000-fold dilution): 10 mM)
IRF Lucia reporter activity (RAW-Dual [1]; [4]): 1.01
IRF Lucia reporter activity (RAW-Dual [1]; agonist: LPS (TLR4) 0.1 ug/mL): 0.352

CC1(C)CC[C@]2(C(=O)n3ccnc3)CC[C@]3(C)[C@H](C(=O)C=C4[C@@]5(C)C=C(C#N)C(=O)C(C)(C)[C@@H]5CC[C@]43C)[C@@H]2C1 (library stock concentration (final ~1000-fold dilution): 10 mM)
IRF Lucia reporter activity (RAW-Dual [1]; [4]): 0.0101
IRF Lucia reporter activity (RAW-Dual [1]; agonist: LPS (TLR4) 0.1 ug/mL): 0.01

C=CC[N+]1(C2CC3C4CCC5CC(O)C(N6CCOCC6)CC5(C)C4CCC3(C)C2OC(C)=O)CCCC1 (stereo not given)
IRF Lucia reporter activity (RAW-Dual [2]; [5]): 0.908

C=CC[N+]1(C2CC3C4CCC5CC(O)C(N6CCOCC6)CC5(C)C4CCC3(C)C2OC(C)=O)CCCC1 (stereo not given) (library stock concentration (final ~1000-fold dilution): 10 mM)
IRF Lucia reporter activity (RAW-Dual [1]; [4]): 0.97
IRF Lucia reporter activity (RAW-Dual [1]; agonist: LPS (TLR4) 0.1 ug/mL): 0.932

CC(C)c1ccc(NC(=O)Cn2cnc3c2c(=O)n(C)c(=O)n3C)cc1
IRF Lucia reporter activity (RAW-Dual [2]; [5]): 1.04

CC(C)c1ccc(NC(=O)Cn2cnc3c2c(=O)n(C)c(=O)n3C)cc1 (library stock concentration (final ~1000-fold dilution): 10 mM)
IRF Lucia reporter activity (RAW-Dual [1]; [4]): 1.01
IRF Lucia reporter activity (RAW-Dual [1]; agonist: LPS (TLR4) 0.1 ug/mL): 0.982

COc1cc(C2Oc3cc(C4Oc5cc(O)cc(O)c5C(=O)C4O)ccc3OC2CO)ccc1O (stereo not given) (library stock concentration (final ~1000-fold dilution): 10 mM)
IRF Lucia reporter activity (RAW-Dual [1]; [4]): 0.929
IRF Lucia reporter activity (RAW-Dual [1]; agonist: LPS (TLR4) 0.1 ug/mL): 0.985

CCC(CC)n1ccc2c(C(=O)NCc3c(C)cc(C)[nH]c3=O)cc(C#N)cc21 (library stock concentration (final ~1000-fold dilution): 10 mM)
IRF Lucia reporter activity (RAW-Dual [1]; [4]): 0.875
IRF Lucia reporter activity (RAW-Dual [1]; agonist: LPS (TLR4) 0.1 ug/mL): 1.01

CCNC(=O)c1[nH]nc(-c2cc(Cl)c(O)cc2O)c1-c1ccc(OC)cc1 (library stock concentration (final ~1000-fold dilution): 10 mM)
IRF Lucia reporter activity (RAW-Dual [1]; [4]): 0.645
IRF Lucia reporter activity (RAW-Dual [1]; agonist: LPS (TLR4) 0.1 ug/mL): 1.16

CCNC(=O)c1[nH]nc(-c2cc(Cl)c(O)cc2O)c1-c1ccc(OC)cc1
IRF Lucia reporter activity (RAW-Dual [2]; [5]): 0.971

CC(C)(C)C(=O)N1N=CCC1c1ccccc1 (stereo not given) (library stock concentration (final ~1000-fold dilution): 10 mM)
IRF Lucia reporter activity (RAW-Dual [1]; [4]): 0.99 ± 0.053
IRF Lucia reporter activity (RAW-Dual [1]; agonist: LPS (TLR4) 0.1 ug/mL): 0.981 ± 0.079

CC(C)C(C(=O)Nc1ccc(C(=O)NO)cc1)c1ccccc1 (stereo not given) (library stock concentration (final ~1000-fold dilution): 10 mM)
IRF Lucia reporter activity (RAW-Dual [1]; [4]): 0.983
IRF Lucia reporter activity (RAW-Dual [1]; agonist: LPS (TLR4) 0.1 ug/mL): 0.312

CC(C)C(C(=O)Nc1ccc(C(=O)NO)cc1)c1ccccc1 (stereo not given)
IRF Lucia reporter activity (RAW-Dual [2]; [5]): 1.09

O=C(/C=C/c1ccccc1)NC(NC(=S)Nc1cccc2cccnc12)C(Cl)(Cl)Cl (stereo not given)
IRF Lucia reporter activity (RAW-Dual [2]; [5]): 0.711

O=C(/C=C/c1ccccc1)NC(NC(=S)Nc1cccc2cccnc12)C(Cl)(Cl)Cl (stereo not given) (library stock concentration (final ~1000-fold dilution): 10 mM)
IRF Lucia reporter activity (RAW-Dual [1]; [4]): 0.649
IRF Lucia reporter activity (RAW-Dual [1]; agonist: LPS (TLR4) 0.1 ug/mL): 0.664

Cl.Cl.Clc1ccc(Nc2nnc(Cc3ccncc3)c3ccccc23)cc1
IRF Lucia reporter activity (RAW-Dual [2]; [5]): 0.847

Cl.Cl.Clc1ccc(Nc2nnc(Cc3ccncc3)c3ccccc23)cc1 (library stock concentration (final ~1000-fold dilution): 10 mM)
IRF Lucia reporter activity (RAW-Dual [1]; [4]): 0.738
IRF Lucia reporter activity (RAW-Dual [1]; agonist: LPS (TLR4) 0.1 ug/mL): 0.672

Fc1ccc(Cl)cc1-c1nc(Nc2ccncc2)c2nccnc2n1 (library stock concentration (final ~1000-fold dilution): 10 mM)
IRF Lucia reporter activity (RAW-Dual [1]; [4]): 0.7
IRF Lucia reporter activity (RAW-Dual [1]; agonist: LPS (TLR4) 0.1 ug/mL): 1.14

C[n+]1cc2c3c(ccc2c2ccc4cc5c(cc4c21)OCO5)OCO3
IRF Lucia reporter activity (RAW-Dual [2]; [6]): 0.0204

C[n+]1cc2c3c(ccc2c2ccc4cc5c(cc4c21)OCO5)OCO3 (library stock concentration (final ~1000-fold dilution): 10 mM)
IRF Lucia reporter activity (RAW-Dual [3]; [4]): 0.0185 and 0.014
IRF Lucia reporter activity (RAW-Dual [3]; agonist: LPS (TLR4) 0.1 ug/mL): 0.021 and 0.0137

Cc1cc(C)c(Nc2ccnc(Nc3ccc(C#N)cc3)n2)c(C)c1 (library stock concentration (final ~1000-fold dilution): 10 mM)
IRF Lucia reporter activity (RAW-Dual [3]; [4]): 0.691
IRF Lucia reporter activity (RAW-Dual [3]; agonist: LPS (TLR4) 0.1 ug/mL): 0.81

Cc1cc(C)c(Nc2ccnc(Nc3ccc(C#N)cc3)n2)c(C)c1
IRF Lucia reporter activity (RAW-Dual [2]; [6]): 1.7

O=C(c1ccc(Nc2nccc(-c3cc4ccccc4s3)n2)cc1)N1CCC(N2CCCC2)CC1
IRF Lucia reporter activity (RAW-Dual [2]; [6]): 0.431 ± 0.58

O=C(c1ccc(Nc2nccc(-c3cc4ccccc4s3)n2)cc1)N1CCC(N2CCCC2)CC1 (library stock concentration (final ~1000-fold dilution): 10 mM)
IRF Lucia reporter activity (RAW-Dual [3]; [4]): 0.0152 and 0.00671
IRF Lucia reporter activity (RAW-Dual [3]; agonist: LPS (TLR4) 0.1 ug/mL): 0.0151 and 0.00623

Cc1nn(-c2ccccc2)c(C)c1/C=N/N1CCN(Cc2ccccc2)CC1 (library stock concentration (final ~1000-fold dilution): 10 mM)
IRF Lucia reporter activity (RAW-Dual [1]; [4]): 0.981
IRF Lucia reporter activity (RAW-Dual [1]; agonist: LPS (TLR4) 0.1 ug/mL): 1.44

Cc1nn(-c2ccccc2)c(C)c1/C=N/N1CCN(Cc2ccccc2)CC1
IRF Lucia reporter activity (RAW-Dual [2]; [5]): 1.01

O=c1cc(-c2ccc(O)c(O)c2)oc2cc(OC3OC(CO)C(O)C(O)C3O)cc(O)c12 (stereo not given) (library stock concentration (final ~1000-fold dilution): 10 mM)
IRF Lucia reporter activity (RAW-Dual [1]; [4]): 0.883
IRF Lucia reporter activity (RAW-Dual [1]; agonist: LPS (TLR4) 0.1 ug/mL): 0.857

O=c1[nH]c(=O)n(C2CC(O)C(CO)O2)cc1F (stereo not given) (library stock concentration (final ~1000-fold dilution): 10 mM)
IRF Lucia reporter activity (RAW-Dual [3]; [4]): 0.79
IRF Lucia reporter activity (RAW-Dual [3]; agonist: LPS (TLR4) 0.1 ug/mL): 0.787

O=c1[nH]c(=O)n(C2CC(O)C(CO)O2)cc1F (stereo not given)
IRF Lucia reporter activity (RAW-Dual [2]; [6]): 0.911

COc1ccc(C(=O)C=Cc2cc(OC)c(OC)c(OC)c2)cc1OC (library stock concentration (final ~1000-fold dilution): 20 mM)
IRF Lucia reporter activity (RAW-Dual [3]; [4]): 0.0429
IRF Lucia reporter activity (RAW-Dual [3]; agonist: LPS (TLR4) 0.1 ug/mL): 0.019

CCCCNc1ncc2c(-c3ccc(CN4CCN(C)CC4)cc3)cn(C3CCC(O)CC3)c2n1.Cl (stereo not given)
IRF Lucia reporter activity (RAW-Dual [2]; [6]): 0.0204

CCCCNc1ncc2c(-c3ccc(CN4CCN(C)CC4)cc3)cn(C3CCC(O)CC3)c2n1.Cl (stereo not given) (library stock concentration (final ~1000-fold dilution): 10 mM)
IRF Lucia reporter activity (RAW-Dual [3]; [4]): 0.0105
IRF Lucia reporter activity (RAW-Dual [3]; agonist: LPS (TLR4) 0.1 ug/mL): 0.0286
